This passage reports Kd results from US20230287109A1.

This test deals with rabbit VEGF (rabbit) (UniProt G1T1L9). Description: SPR, summary table, column Rabbit VEGF, Kd [M]. Background: In SPR one partner is held on a chip, and binding of the other changes the refractive index at the surface.

B1: IGT-427 (Fc fusion)
heavy: EVQLVQSGAEVKKPGASVKVSCKASGYSFTSYWMNWVRQAPGQGLEWMGMIHPSDSETRLNQKFMDRVTMTRDTSTSTVYMELSSLRSEDTAVYYCARGLYGNSWGQGTLVTVSSASTKGPSVFPLAPSSKSTSGGTAALGCLVKDYFPEPVTVSWNSGALTSGVHTFPAVLQSSGLYSLSSVVTVPSSSLGTQTYICNVNHKPSNTKVDKKV[sequence of human IgG1 Fc with L234A L235A H310A (EU numbers) not given]GGGGSGGGGSGGGGSGGGGSSDTGRPFVEMYSEIPEIIHMTEGRELVIPCRVTSPNITVTLKKFPLDTLIPDGKRIIWDSRKGFIISNATYKEIGLLTCEATVNGHLYKTNYLTHRQTNTIIDVVLSPSHGIELSVGEKLVLNCTARTELNVGIDFNWEYPSSKHQHKKLVNRDLKTQSGSEMKKFLSTLTIDGVTRSDQGLYTCAASSGLMTKKNSTFVRVHEK
light: DIQMTQSPSSLSASVGDRVTITCRASQDIGISLNWYQQEPGKAIKRLIYATSSLDSGVPKRFSGSRSGTEYTLTISSLESEDFADYYCLQYASSPYTFGGGTKLEIKRTVAAPSVFIFPPSDEQLKSGTASVVCLLNNFYPREAKVQWKVDNALQSGNSQESVTEQDSKDSTYSLSSTLTLSKADYEKHKVYACEVTHQGLSSPVTKSFNRGEC
A word on the Kd: it is a measure of binding affinity in units of concentration. A high value points to lower affinity. B1 came in with a Kd of 1.07 nM.
